Laboratory results as given in PubChem BioAssay AID1963576 (National Center for Advancing Translational Sciences (NCATS), 2024).
Hit rate of the full screen: of about 46,000 compounds, about 60 (0.1%) were called active. Another 3% or so got no clear call; they are omitted. Calls follow the shape of the dose curve; as a rule, active = well fitted inhibition curve with a large enough effect; inconclusive = small, poorly fitted or top-dose-only effect; inactive = no such curve, though single readings can be large or run the other way. This is one part of the list.

Experiment: Primary qHTS assay for Inhibitors of ovarian cancer metastasis using an organotypic tumor microenvironment (TME) model. Also: nearly all actives have a fitted effect of over 65% in size.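 As to Potency: count of GFP cancer cells still attached after washing and fixation.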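 As to activity change, negative = inhibition: plate controls were DMSO wells for no effect and tomatine positive control wells for full effect.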
Conditions: SKOV3ip1-GFP adhesion/invasion on 3D omental model, fluorescence; series mostly up to 45.8 µM; activity change, negative = inhibition: at the top concentration
In short: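 qHTS, 4-pt dose (0.36-46 umol/L); SKOV3ip1-GFP, 1,200 cells/well, no FBS; primary omental fibroblast/mesothelial co-culture 48 h pre-grown; 2 h RT + 16 h 37 C; PBS wash, 4% PFA; GFP count 488/509 nm.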
Potency is read from the fitted curve at half-maximal effect.

Activity change, negative = inhibition, inactive:
Cn1cccc1-c1cc2n(n1)CCC(=O)N2CCCC(=O)NCc1cccc(Cl)c1 4.93%, CCc1ccc(CNC(=O)Cn2nc(C)c3nn(-c4ccc(Cl)cc4)c(C)c3c2=O)cc1 -7.32%, COCCNC(=O)c1ccc2c(c1)ncn2-c1cc(C)ccc1OC 0.731%, CCOc1ccc(NS(=O)(=O)c2c(C)nc3sc(CC)nn3c2=O)cc1 1.04%, CC(C)(C)Cn1c(N)nc2ccc(-c3[nH]c(C(C)(C)C)nc3-c3ccc(F)cc3)nc21 2.82%, CCS(=O)(=O)c1ncc(N(Cc2ccccc2)Cc2ccco2)c(C(=O)Nc2ccccc2C)n1 3.67%, CCc1ccccc1S(=O)(=O)Cc1ccc(C(=O)NCCc2ccc(Cl)cc2)o1 1.57%, CSCCC(NS(=O)(=O)c1ccc2c(c1)oc(=O)n2C)C(=O)NCc1ccc(Cl)cc1 (stereo unspecified) -15.4%, Cc1nnc(NC(=O)CSc2nccn2Cc2ccccc2)s1 40%, CCOC(=O)c1ccc(-n2c(CCC(=O)O)ccc2-c2ccccc2)cc1O 1.57%, Cc1cc(F)ccc1Nc1nc2ccc(Cl)cc2n2cnnc12 -1.9%, O=C(Cc1ccc(Cl)cc1)NCCc1csc2nc(-c3ccccc3F)nn12 4.61%, Cc1cc(=O)oc2cc(O)ccc12 -10.2%, O=C(NC1CCCCC1)c1ccc2c(c1)N(Cc1cccc(Cl)c1)C(=O)c1ccccc1S2(=O)=O 2.33%, COC(=O)c1ccccc1NC(=O)CSc1nc2ccccc2nc1Cc1ccc(F)cc1 -9.16%, COc1ccc(CNC(=O)CCc2c(C)nc3cc(-c4ccc(OC)cc4OC)nn3c2C)cc1 -8.04%, CCOC(=O)c1cc(-c2ccc(F)cc2)n(CCC(=O)NC2CCC(C)CC2)c1C (stereo unspecified) -6.64%, COc1cccc(-c2ccc(NC(=O)C3=C(C(=O)O)CCC3)c(F)c2)c1 11.3%, CCc1ccc(NC(=O)CSc2nc(-c3ccc(C)cc3)nc3c2Cc2c(CO)cnc(C)c2O3)cc1 -6.54%, CCOc1ccc2nc(N3CCCC(C(=O)Nc4ccccc4CC)C3)sc2c1 (stereo unspecified) -0.201%, Fc1ccc(Nc2nc(-c3cccc(Cl)c3)c3c(n2)-c2ccccc2OC3)c(F)c1 0.561%, Fc1ccc(-c2cc(-c3ccc(F)cc3)c3c(n2)-c2cc(F)ccc2OC3)cc1 1.84%, Cc1cccc(NC(=O)Cn2c(=O)n(CC3CCC(C(=O)NCCc4ccccc4)CC3)c(=O)c3ccccc32)c1 (stereo unspecified) 1.07%, COc1ccc(S(=O)(=O)n2nc(-c3ccco3)nc2NCc2ccc(C(C)C)cc2)cc1 3.89%, Clc1cccc(-c2nnnn2Cc2cccnc2)c1Cl -20%, Cc1c(NC(=O)c2cccs2)cccc1-c1nc2cc(Cl)ccc2o1 2.57%, COc1ccc(S(=O)(=O)NCc2cccn2Cc2cc(C)ccc2C)cc1OC 0.952%, CCc1nnc2c3ccccc3nc(Nc3cc(C)cc(C)c3)n12 -3.49%, COc1ccc(-c2cc(-c3nc(-c4cc(OC)c(OC)c(OC)c4)no3)[nH]n2)c(OC)c1 2.64%, CCOc1ccc(C(=O)Nc2ccc(OCc3cc(=O)n4cccc(C)c4n3)cc2)cc1 7.2%, Cc1ccc(-n2ncc(C(=O)NCCN3CCN(C)CC3)c2C2CCN(C(=O)OC(C)(C)C)CC2)cc1C 14.3%, COc1cccc(NC(=O)Cn2c(=O)n(Cc3ccc4c(c3)OCO4)c(=O)c3oc4ccccc4c32)c1 -1.83%, O=C(CCCCCCNC(=O)c1cnc(N(c2ccccc2)c2ccccc2)nc1)NO -12.6%, CC(=O)c1cccc(NS(=O)(=O)c2c(C(=O)N3CCCCCC3)c(C)n(C)c2C)c1 -2.22%, COc1ccc2c(c1)c(N1CCCC1=O)c(C(=O)Nc1ccc(OC)c(Cl)c1)n2C 3.06%, CCOc1ccc(CNC(=O)Cn2c(=O)c3cccn3c3cccnc32)cc1 8.6%, O=c1[nH]c(=O)n([C@H]2C[C@@H](O)[C@@H](CO)O2)cc1I 3.17%, COc1cc(NC(=O)c2noc3c2CC(C)CC3)c(OC)cc1Cl (stereo unspecified) 2.96%, CCc1ccc(NC(=O)c2cc(S(=O)(=O)NC3CCCCCC3)ccc2F)cc1 -4.26%, O=C(Nc1ccccc1)c1cccc(N2CCCS2(=O)=O)c1 2.63%, COc1ccc(C(CC(=O)Nc2ncccc2C)N2Cc3ccccc3C2=O)cc1OC (stereo unspecified) 37.4%, Cc1nn2c(-c3ccccc3)cc(-c3ccccc3)nc2c1-c1ccc(Cl)cc1 -5.52%, Cc1nn(CCCC(=O)Nc2ccccc2C(F)(F)F)c(=O)c2nn(-c3ccccc3)c(C)c12 1.51%, CC1CCC(NC(=O)c2ccc(CSc3nc4ccncc4n3Cc3ccc(F)cc3)cc2)CC1 (stereo unspecified) -27.2%, COc1ccc(-n2c(SCCC(C)C)nc3sc4c(c3c2=O)CC(C(C)C)OC4)cc1 (stereo unspecified) -2.77%, O=C(Cn1c(=O)ccc2cc(S(=O)(=O)N3CCCC3)ccc21)Nc1ccccc1 -4.66%, Cc1ccc(Cl)cc1N1CCN(C(=O)c2ccc3c(Cl)c4c(nc3c2)CCCC4)CC1 19.1%, CC(=O)NCC(=O)N1[C@H]2CC[C@H]1c1cc(Nc3ncc(C(F)(F)F)c(NC4CCC4)n3)ccc12 -14.6%, O=S(=O)(Nc1ccc(O)c(Sc2nc3ccccc3s2)c1)c1cc(Cl)ccc1Cl 0.867%, CC1CCCCN1c1cc2c(cc1F)c(=O)c(S(=O)(=O)c1ccccc1)cn2Cc1ccccc1 (stereo unspecified) 7.1%, Cc1c(Cl)cccc1NC(=O)C(=O)NCCc1csc2nc(-c3ccccc3F)nn12 0.484%, CCCCOc1ccc(CNC(=O)c2cnc3sc(N4CCCC4)nn3c2=O)cc1 0.54%, CCn1ccc2c(OCC(=O)Nc3ccc(OC)cc3OC)cccc2c1=O 0.543%, COc1ccccc1CNC(=O)CCc1c(C)c2cc3c(C)coc3cc2oc1=O 2.82%, O=c1ccc(-c2ccccc2)nn1Cc1c(F)cccc1Cl -7.38%, COc1ccc(-c2nc(CNC(=O)Nc3ccccc3)c(C)o2)c(OC)c1 -8.24%, Cc1ccc(OCC(=O)NCC2(N3CCN(C)CC3)CCCCC2)cc1 3.09%, COc1ccccc1Nc1nc(C)nc(N)c1S(=O)(=O)c1ccccc1 2.18%, Cc1ccc(C)c(NC(=O)c2cc(S(=O)(=O)NCc3ccccc3)ccc2F)c1 -3.68%, Cc1nc2c3cccnc3nn2c(C)c1CCC(=O)NCc1ccccc1 -2.96%, Cc1ccc(O)c(NC(=O)c2cc(-c3ccc(F)cc3)no2)c1 4.22%, COc1ccc(CNC(=O)c2ccc(Cn3c(=O)c4cccn4c4cccnc43)cc2)c(OC)c1 -6.75%, COc1ccc(-n2nc3c(N4CCC(C(=O)N5CCC(C)CC5)CC4)nnc(C)c3c2C)cc1 -17.9%, CCOCc1cc(CN2CCN(c3cccc(C(F)(F)F)c3)CC2)c(O)c2ncccc12 -13.1%, COc1c(OCCCN2CCOCC2)ccc2c3n(c(=NC(=O)c4cnc(N)nc4)nc12)CCN3 -4.01% [at 23.2 µM], COc1cccc(-n2c(SCc3cccc(C)c3)nc3c([nH]c4ccccc43)c2=O)c1 -10%, O=C(C1CCC1)N1CCCc2cc(S(=O)(=O)N3CCN(c4cccc(Cl)c4)CC3)ccc21 3.03%, CCOc1ccc(-n2ccnc2SCC(=O)Nc2cc(C)ccc2C)cc1 -1.32%, CCOc1ccccc1NC(=O)COC(=O)CC(C)(C)CC1=NS(=O)(=O)c2ccccc2N1 -2.47%, Cc1onc(-c2ccccc2Cl)c1C(=O)Oc1ccc(Cl)cc1Cl 25.1%, Cc1ccc(C)c(NC(=O)C(=O)NCCCN2CCOCC2)c1 1.48%, CCOc1ccc(CCNC(=O)c2cnc3c(-c4ccc(F)cc4)c(C)nn3c2C)cc1 -22.2%

outcome, inactive:
O=C(NCc1cccc(Cl)c1)c1cnc(N2CCOCC2)c2ccccc12, O=C(Nc1cc(-c2cccc(Cl)c2)nn1-c1ccccc1)c1ccccc1F, Cc1ccc(C(=O)Nc2cc(-c3cn4cccnc4n3)ccc2C)cc1C, CCC(C)(C)NC(=O)C(NS(=O)(=O)c1cccs1)c1ccccc1 (stereo unspecified), CC(C)CCNc1nc(Nc2ccccc2)c2cnn(C)c2n1, CC(CC(=O)Nc1ccc(F)cc1)S(=O)(=O)c1cc2c3c(c1)CCN3C(=O)CC2 (stereo unspecified), Cc1ccc(CNc2cc(C)nc3nc(-c4ccc(C)cc4)nn23)cc1, CNc1ccc(-c2nc(-c3ccncc3)no2)cc1[N+](=O)[O-], CCOC(=O)c1c(NC(=O)c2cc(-c3cccc(Cl)c3)on2)sc(C)c1C, CCc1ccc(-c2nc3cc(NC(=O)c4ccc(C)c(C)c4)ccc3o2)cc1, COc1cccc(NC(=O)Cn2c(=O)n(Cc3ccc(F)cc3)c(=O)c3sc4ccccc4c32)c1, COc1ccc(NC(=O)[C@H](Cc2ccccc2)N2Cc3ccccc3C2=O)cc1OC, CCc1ccc(CNC(=O)CCn2nc(C)c3c(C)n(-c4ccccc4)nc3c2=O)cc1, Cc1ccc(S(=O)(=O)c2cn(Cc3ccccc3)c3cc(N4CCOCC4)c(F)cc3c2=O)cc1, Cc1nn(-c2ccccc2)c2c1N(CCCC(=O)NC(C)c1ccccc1)C(=O)CS2 (stereo unspecified), Cc1nn(-c2ccccc2)c2c1N(CC(=O)N1CCN(c3ccc(Cl)cc3)CC1)C(=O)CS2, Cc1cc(C)n2nc(CNC(=O)c3ccc(Cl)cc3)nc2n1, COc1cccc(-c2nc(CS(=O)(=O)CC(=O)N3CCN(c4ccccc4)CC3)c(C)o2)c1, CCC(=O)N1c2ccccc2CC1C(=O)NCCCN1CCN(c2ccc(OC)cc2)CC1 (stereo unspecified), CCn1cc(C(=O)NCCC(C)C)c(=O)c2cc(S(=O)(=O)N(C)C3CCCCC3)ccc21, COc1ccc(Nc2ncc(C(=O)Nc3cccc(Cl)c3)c3ccccc23)cc1, CCN(CC)S(=O)(=O)c1ccc2c(c1)nc(CN(C)C(=O)Nc1ccc(C)c(Cl)c1)n2C, CC(C)CCNC(=O)c1cnc2sc(N3CCCCCC3)nn2c1=O

Potency, active:
Cc1ccc(C)c(NC(=O)c2nc(S(=O)(=O)Cc3ccc(F)cc3)ncc2Cl)c1 11.2 µM
